According to the supplement of paper PMC10126150:
Values marked as one replicate rest on one cluster of the flow cell; about a third of the high ones do not repeat.

Each sequence was assayed on ATP (assay: switch fluorescence ratio, 500 uM ATP over buffer (Cy3 cluster intensity, sum of 5 cycles each) (fold (ratio)); higher = stronger signal-on switching upon ATP binding; sequences stand for … in TCGTCGGCAGCGTCAGATGTGTATAAGAGACAGTTTTTTTTTTTTTTTTTTTTTTTTT…TC). Conditions: aptamer strand: ATP DNA aptamer (quencher-CACCTGGGGGAGTATTGCGGAGGAAGG + anchor), 100 nM annealed; ATP concentration: 500 uM; one replicate.
How it was run: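 Imaging in selection buffer was followed by imaging after 15 min with 500 uM ATP at 22 °C, for Cy3-labelled switching-strand clusters annealed to 100 nM quencher-labelled ATP aptamer on a modified Illumina MiSeq flow-cell. Five of these buffer/ATP cycles ran, separated by NaOH stripping and re-annealing. The fluorescence ratio per cluster is summed target-cycle over summed buffer-cycle Cy3 intensity, averaged per switch-domain sequence; clusters outside 100-1000 RFU were removed.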
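Further: ATP exposure 15 min at 22 °C before imaging.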

Row | Sequence | switch fluorescence ratio
1 | CGGTTCGTTT | 0.969
2 | CGGTTGGCAG | 1.02
3 | CGGTTTACTA | 0.973
4 | CGTAAAGACT | 0.982
5 | CGTAACAGAT | 0.982
6 | CGTAACTAAA | 0.964
7 | CGTAACTGGG | 1.03
8 | CGTAATATGG | 1.25
9 | CGTAATCGTG | 1.04
10 | CGTACAGGAA | 1.05
11 | CGTACGACGA | 1
12 | CGTACGGGAT | 0.977
13 | CGTACTGGGC | 1.09
14 | CGTACTTTCG | 1.03
15 | CGTAGACTAA | 0.976
16 | CGTAGATGCT | 1.03
17 | CGTAGCAAAA | 1.93
18 | CGTAGGACGA | 0.996
19 | CGTAGGGTTC | 1.02
20 | CGTAGTAAGA | 1.32
21 | CGTAGTATGT | 1.03
22 | CGTAGTTATT | 1.03
23 | CGTATAGGCT | 1.01
24 | CGTATATAA | 1.04
25 | CGTATCATGT | 1
26 | CGTATGGAG | 0.967

Row | Sequence | switch fluorescence ratio
27 | CGTATGGGAC | 0.969
28 | CGTCAACCAT | 1.01
29 | CGTCAATCGG | 1.13
30 | CGTCAATTCA | 1.17
31 | CGTCAGCATA | 4.67
32 | CGTCAGTAAT | 1.6
33 | CGTCATCGGT | 0.962
34 | CGTCATGATT | 1.02
35 | CGTCGACGTT | 1.04
36 | CGTCGAGGGT | 0.96
37 | CGTCGCTATT | 1.29
38 | CGTCGGATGT | 1.02
39 | CGTCGGCAA | 2.38
40 | CGTCGGGCAG | 1.02
41 | CGTCGGGTCT | 1.04
42 | CGTCGTAGGC | 1.07
43 | CGTCTCGCTC | 1.47
44 | CGTCTGATAA | 1.03
45 | CGTCTGCGGT | 0.979
46 | CGTCTGGTG | 0.96
47 | CGTCTGTACG | 1.03
48 | CGTGAAGGAG | 0.967
49 | CGTGAATAGG | 0.971
50 | CGTGAATTT | 0.981
51 | CGTGACATGG | 0.857
52 | CGTGACCATA | 1.15

Row | Sequence | switch fluorescence ratio
53 | CGTGAGATTC | 0.999
54 | CGTGAGGCTC | 1.05
55 | CGTGATAGAA | 0.968
56 | CGTGCAACGT | 0.98
57 | CGTGCAGACA | 1
58 | CGTGCAGAGG | 1
59 | CGTGCAGCCC | 1.07
60 | CGTGCCAAAC | 1.22
61 | CGTGCCGGGA | 1.01
62 | CGTGCCTGAA | 0.962
63 | CGTGCTATTA | 1.02
64 | CGTGGACCAT | 1.02
65 | CGTGGACCGT | 1
66 | CGTGGAGCAT | 1.07
67 | CGTGGCCAG | 0.927
68 | CGTGGCCGCT | 1.03
69 | CGTGGCTGTG | 1.04
70 | CGTGGGACTA | 0.952
71 | CGTGGGCACA | 0.975
72 | CGTGGTCGGC | 1
73 | CGTGGTGTGC | 1.01
74 | CGTGGTTACA | 1
75 | CGTGT | 0.983
76 | CGTGTAATCT | 0.999
77 | CGTGTATGAA | 1.01
78 | CGTGTCATGC | 1.03

Row | Sequence | switch fluorescence ratio
79 | CGTGTCGCAG | 0.995
80 | CGTGTCTGGA | 1.01
81 | CGTGTGGAC | 1
82 | CGTGTGGAG | 0.998
83 | CGTGTTTGTC | 1.05
84 | CGTTAAAAGC | 1.01
85 | CGTTAACCGC | 1.07
86 | CGTTACGGAA | 1.05
87 | CGTTACTTGA | 1.01
88 | CGTTAGGGAC | 1.03
89 | CGTTAGGGTT | 1
90 | CGTTAGGTG | 0.995
91 | CGTTATACCT | 1.23
92 | CGTTATTACA | 1.02
93 | CGTTCCAGGG | 1.21
94 | CGTTCCTTCC | 2.98
95 | CGTTCTAGCA | 1.04
96 | CGTTCTATCA | 0.988
97 | CGTTCTCGAA | 0.986
98 | CGTTCTGCTG | 0.999
99 | CGTTCTTTGA | 1.01
100 | CGTTGATC | 1
101 | CGTTGATCGG | 1.01
102 | CGTTGATTTT | 0.991
103 | CGTTGGATTA | 1.01
104 | CGTTGGCACC | 1.03

Row | Sequence | switch fluorescence ratio
105 | CGTTGGGATT | 1.01
106 | CGTTGGTATT | 1.01
107 | CGTTGTCTCT | 1.05
108 | CGTTGTGGAT | 1
109 | CGTTGTTTAG | 0.995
110 | CGTTTAAAGT | 0.989
111 | CGTTTCAGAG | 0.994
112 | CGTTTCCGAT | 0.978
113 | CGTTTCGAGA | 1.01
114 | CGTTTCTATA | 1.01
115 | CGTTTCTTTC | 1.04
116 | CGTTTGATCA | 0.99
117 | CGTTTGCTTC | 0.999
118 | CGTTTTAAGT | 0.943
119 | CGTTTTCAGT | 0.993
120 | CGTTTTGCTC | 1.05
121 | CGTTTTTCCC | 1.04
122 | CTAAAACCAT | 1.1
123 | CTAAAATGTG | 1.02
124 | CTAAACTAAG | 1.04
125 | CTAAAGGGAT | 0.983
126 | CTAACACTCT | 0.99
127 | CTAACAGCAG | 1.12
128 | CTAACAGGGC | 1.09
129 | CTAACATCCT | 1.09
130 | CTAACCCGGT | 1.03

Row | Sequence | switch fluorescence ratio
131 | CTAACGTTCA | 1.05
132 | CTAACGTTGA | 1.04
133 | CTAACTTTAT | 1.02
134 | CTAAGACTGA | 1
135 | CTAAGCACCG | 1.09
136 | CTAAGTAG | 1.19
137 | CTAAGTCGGT | 0.989
138 | CTAAGTTGCG | 1.01
139 | CTAATGCTTT | 1
140 | CTAATGTAAC | 1.01
141 | CTAATGTGTT | 0.948
142 | CTAATTGG | 1.03
143 | CTAATTGGTG | 1.01
144 | CTAATTTGT | 0.996
145 | CTACAACGGT | 1.01
146 | CTACAAGAAG | 1.06
147 | CTACACTACT | 1.38
148 | CTACATAGGT | 1.07
149 | CTACATCCGA | 1.12
150 | CTACATGCGC | 1.02
151 | CTACCAACAG | 1.1
152 | CTACCCGCGA | 4.09
153 | CTACGATTCT | 1.03
154 | CTAGAAAGGT | 1.01
155 | CTAGACAGCC | 1.06
156 | CTAGACTAGC | 1.04

Row | Sequence | switch fluorescence ratio
157 | CTAGATGCTG | 1.2
158 | CTAGATGGT | 0.924
159 | CTAGATGGTG | 1.03
160 | CTAGCAGAGG | 1.06
161 | CTAGCCGTAT | 0.883
162 | CTAGCGGATT | 1
163 | CTAGCGTACT | 1.29
164 | CTAGCTTGGT | 1
165 | CTAGGAACCG | 1.04
166 | CTAGGCCCGC | 1.03
167 | CTAGGCTTGT | 0.995
168 | CTAGGGCGTA | 1
169 | CTAGGGGACC | 1.01
170 | CTAGGGGCTA | 1.03
171 | CTAGGGTCCT | 1.01
172 | CTAGGTGCTT | 1.36
173 | CTAGTACAAC | 1.02
174 | CTAGTAGCT | 1.03
175 | CTAGTAGGAG | 0.986
176 | CTAGTATAGG | 1.03
177 | CTAGTATGGG | 0.948
178 | CTAGTGTGTC | 0.885
179 | CTAGTTGCTA | 0.953
180 | CTAGTTTGAA | 0.988
181 | CTATACCTAA | 1.04
182 | CTATACTAGC | 0.978

Row | Sequence | switch fluorescence ratio
183 | CTATAGGCGT | 0.992
184 | CTATAGTCTC | 0.996
185 | CTATATGGTA | 1.01
186 | CTATCCCAAG | 1.08
187 | CTATCGGGCA | 1.02
188 | CTATCTAGGC | 1.07
189 | CTATCTGG | 0.987
190 | CTATCTTCGT | 1
191 | CTATCTTTC | 1.01
192 | CTATGATCG | 0.94
193 | CTATGCACCC | 1.21
194 | CTATGCTATG | 1.05
195 | CTATGCTTCT | 0.993
196 | CTATGTATGA | 0.978
197 | CTATGTGAC | 1.04
198 | CTATTAAGGA | 0.95
199 | CTATTAGAAA | 1.02
200 | CTATTGGATT | 1.01
201 | CTATTTCATG | 0.993
